# Measured values from PubChem BioAssay AID2147 (National Center for Advancing Translational Sciences (NCATS), 2009).
# Hit rate of the full screen: of about 230,000 compounds, about 3,600 (1.6%) were called active. Inconclusive results, whose numbers are uncertain, are shown with a selection of clear calls. Calls follow the shape of the dose curve; as a rule, active = well fitted inhibition curve with a large enough effect (not every such curve was filed as active); inconclusive = small, poorly fitted or top-dose-only effect, or another doubt; inactive = no such curve, though single readings can be large or run the other way. Potencies beside an inconclusive call are fits to weak or partial responses and may not hold up.
# Biological target: Lysine-specific demethylase 4E (Homo sapiens) (UniProt B2RXH2)
# Test: qHTS Assay for Inhibitors of Human Jumonji Domain Containing 2E (JMJD2E)
# Conditions: JMJD2E catalytic domain, FDH-coupled NADH fluorescence (FDH is formaldehyde dehydrogenase); series mostly up to 57.1 µM; activity change, negative = inhibition: at the top concentration
# Also: nearly all actives have a fitted effect of over 50% in size.
# 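For activity change, negative = inhibition in this document: 0% = wells with enzyme and -100% = buffer wells without enzyme.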
# Potency is read from the fitted curve at half-maximal effect; tags tell the direction and shape of the fitted curve.
# Sequence of UniProt B2RXH2 (B2RXH2 whole entry, looked up, the tested form may be a part): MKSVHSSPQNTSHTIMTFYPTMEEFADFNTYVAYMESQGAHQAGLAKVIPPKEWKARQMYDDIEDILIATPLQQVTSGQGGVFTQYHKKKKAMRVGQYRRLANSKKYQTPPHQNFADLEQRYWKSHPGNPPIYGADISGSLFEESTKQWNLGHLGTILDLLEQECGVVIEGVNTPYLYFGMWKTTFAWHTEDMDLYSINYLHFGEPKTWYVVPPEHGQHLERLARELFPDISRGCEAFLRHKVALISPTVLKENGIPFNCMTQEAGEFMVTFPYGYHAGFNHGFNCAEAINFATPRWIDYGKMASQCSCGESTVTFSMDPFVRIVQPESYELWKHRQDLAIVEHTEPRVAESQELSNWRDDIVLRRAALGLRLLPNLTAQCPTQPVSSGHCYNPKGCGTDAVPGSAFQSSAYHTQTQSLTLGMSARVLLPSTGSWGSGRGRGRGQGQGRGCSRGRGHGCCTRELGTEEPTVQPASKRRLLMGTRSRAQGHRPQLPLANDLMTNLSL
SMILES,"activity change, negative = inhibition",Potency
COC(=O)c1sccc1NC(=S)N(C)C1CCCCC1,inactive: -4.78%,–
CCOC(=O)CCCCCCCCCCCCC1C=CCC1 (configuration not stated),inactive: 0.484%,–
OCCn1c(CSc2nnc(-c3ccco3)n2-c2ccccc2)nc2ccc(Cl)cc21,inactive: -10.5%,–
COc1cccc(N2CCN(C(=O)c3ccc4nc(N5CCC(C)CC5)sc4c3)CC2)c1,inactive: -7.54%,–
CCOC(=O)c1c(C)[nH]c(C(=O)CSc2ccccc2)c1C,inactive: -4.88%,–
O=C(O)/C(=C\C(=O)c1ccccc1)Nc1ccccc1,–,"inconclusive: 39.8 µM [inhibitor, single point]"
C=CCNC(=O)C(C(=O)OCC)C1CCCCC1 (configuration not stated),inactive: 4.97%,–
Cc1ccccc1-n1c(C)nnc1SCc1nc2ccccc2s1,inactive: -2.59%,–
Cc1cccc(N2C(=O)C(O)=C(C(=O)c3cccs3)C2c2ccc(Cl)cc2)n1 (configuration not stated),–,"inconclusive: 39.8 µM [inhibitor, single point]"
COc1ccc(-c2c3c([nH]c(=S)c2C#N)CCC3)cc1,–,"inconclusive: 17.8 µM [inhibitor, partial curve]"
O=C(Cc1coc2ccc3ccccc3c12)Nc1nccs1,–,"inconclusive: 39.8 µM [inhibitor, single point]"
COc1cccc(=O)c2c(C)n(CC(=O)c3ccccc3)c(C)c12,inactive: -11.2%,–
Cc1ccc(O)c(C(CC(=O)NCc2cccnc2)c2ccccc2)c1 (configuration not stated),inactive: -19.4%,–
Nc1nc2ccccc2nc1N,–,active: 3.16 µM
CCCCN(C(=O)NC(=O)C1=C(N2CCOCC2)/C(=C/c2ccccc2)CC1)S(C)(=O)=O,–,"inconclusive: 35.5 µM [inhibitor, partial curve]"
O=C(NCCn1cc(SCc2ccccc2)c2ccccc21)c1c(F)cccc1F,inactive: 5.79%,–
C=C(C)C1Cc2cc3ccc(=O)oc3cc2O1 (configuration not stated),–,"inconclusive: 28.2 µM [inhibitor, partial curve]"
CCC1=NN2C(=N)/C(=C\c3cccn3-c3ccc(Cl)cc3)C(=O)N=C2S1,inactive: -2.91%,–
Cn1c(=O)[nH]c(=O)c2c1nc(SCC(O)CO)n2Cc1ccccc1Cl (configuration not stated),inactive: -0.0048%,–
CCOC(=O)c1cnc2ccc(OCC)cc2c1NCc1cccnc1,–,"inconclusive: 25.1 µM [inhibitor, partial curve]"
COCCSc1nc(N)c2c3c(sc2n1)CN(C)CC3,–,"inconclusive: 22.4 µM [inhibitor, partial curve]"
COC(=O)c1ccc(CSc2ccc3nnc(-c4ccccc4)n3n2)o1,–,"inconclusive: 31.6 µM [inhibitor, partial curve]"
CN(C)CCn1c(=S)[nH]c2ncccc2c1=O,–,"inconclusive: 28.2 µM [inhibitor, single point]"
Cn1c2ccccc2c2ncn(CCN3CCOCC3)c(=O)c21,–,"inconclusive: 28.2 µM [inhibitor, partial curve]"
Cn1nnc2cc(C(=O)N3CCCCCC3)ccc21,inactive: -0.54%,–
CCOC(=O)N1CCN(C(=O)CC(=O)Nc2ccc3nc4n(c(=O)c3c2)CCCCC4)CC1,–,"inconclusive: 25.1 µM [inhibitor, partial curve]"

SMILES,"activity change, negative = inhibition",Potency
Cc1oc(-c2cccs2)nc1CN1CCN(C2CCCC2)C(CCO)C1 (configuration not stated),–,"inconclusive: 22.4 µM [inhibitor, partial curve]"
O=C(N/N=C/c1cccc([N+](=O)[O-])c1)c1cccc(Br)c1,inactive: -1.56%,–
S=C(NCc1cccs1)Nc1ccc(Cl)cc1,–,"inconclusive: 7.94 µM [inhibitor, full curve]"
CC(C)CCC(CC(C)O)c1n[nH]c(=S)n1-c1ccccc1 (configuration not stated),inactive: -6.52%,–
CN1/C(=C/C(=O)C2CC2)C(C)(C)c2ccccc21,–,"inconclusive: 28.2 µM [inhibitor, single point]"
O=C(NC1CCS(=O)(=O)C1)c1cc(-c2ccccc2)nc2ccccc12 (configuration not stated),–,"inconclusive: 25.1 µM [inhibitor, partial curve]"
O=C(OC(C(=O)NC1CCCC1)c1ccncc1)C1=Cc2ccccc2OC1 (configuration not stated),–,"inconclusive: 39.8 µM [inhibitor, single point]"
Nn1c(Cc2ccc(Br)cc2)n[nH]c1=S,inactive: -25.9%,–
CCOC(=O)c1sc(NC(=O)CSc2nc(C)cc(C)n2)c(C#N)c1C,inactive: -21.1%,–
CC1CN(CCOc2ccc(Cl)cc2Cl)CC(C)O1 (configuration not stated),–,"inconclusive: 39.8 µM [inhibitor, single point]"
Cc1ccc(S(=O)(=O)/N=C(\c2ccccc2)N(C)S(=O)(=O)c2ccccc2)cc1,–,"inconclusive: 39.8 µM [inhibitor, single point]"
COc1ccc2c(C)c(Cc3ccccc3)c(=O)oc2c1OC,–,"inconclusive: 28.2 µM [inhibitor, partial curve]"
CN(C1=C(NC(=O)c2ccccc2)C(=O)c2ccccc2C1=O)C1CCS(=O)(=O)C1 (configuration not stated),–,"inconclusive: 28.2 µM [inhibitor, single point]"
O=C1CNC(=O)/C1=C/c1ccc(O)cc1,–,"inconclusive: 39.8 µM [inhibitor, single point]"
CCOc1cc(S(=O)(=O)N(CC)CC)ccc1F,inactive: 3.99%,–
O=C(CN1CCC(Cc2ccccc2)CC1)Nc1ccc2c(c1)OCCO2,inactive: -21.6%,–
COc1cccc(-c2nc(CS(=O)CC(=O)NCc3ccccc3Cl)c(C)o2)c1 (configuration not stated),–,"inconclusive: 39.8 µM [inhibitor, single point]"
Cn1c(=O)c2c(SCc3cccnc3)nc(CC(C)(C)C)nc2n(C)c1=O,inactive: 1.24%,–
COc1ccc(-c2cc(C(=O)NCCN3CCOCC3)c3ccccc3n2)cc1,–,"inconclusive: 31.6 µM [inhibitor, partial curve]"
Fc1ccc(-n2cc(CNCCc3ccccn3)c(-c3ccccc3Cl)n2)cc1,–,"inconclusive: 11.2 µM [inhibitor, partial curve]"
Cc1nc(NC(=O)c2ccccc2)sc1C1(C)CC(c2ccccc2F)=NO1 (configuration not stated),–,"inconclusive: 39.8 µM [inhibitor, single point]"
O=C(CCSCc1ccccc1F)N1CCN(c2ccccn2)CC1,–,"inconclusive: 39.8 µM [inhibitor, single point]"
Cc1ccc(NC(=O)CN2C(=O)N/C(=C/c3ccco3)C2=O)cc1,–,active: 15.8 µM
OCCCNCc1ccc(-c2ccccc2)cc1,–,"inconclusive: 0.251 µM [inhibitor, full curve]"
CC[n+]1ccc(/C=C2\Sc3ccccc3N2CCCS(=O)(=O)[O-])c2ccccc21,–,"inconclusive: 11.2 µM [inhibitor, partial curve]"
COc1cccc(C(=O)Nc2cccc(C(=O)NC3=NN(c4c(Cl)cc(Cl)cc4Cl)C(=O)C3)c2)c1,inactive: -16.9%,–

SMILES,"activity change, negative = inhibition",Potency
Cc1cc(C)c2cc(CN(Cc3ccc4c(c3)OCO4)Cc3nnnn3Cc3ccco3)c(=O)[nH]c2c1,–,"inconclusive: 39.8 µM [inhibitor, single point]"
O=c1c2ccc(Cl)cc2[nH]c(=S)n1Cc1cccnc1,inactive: 5.73%,–
Cc1ccc(C2Nc3cccc4cccc(c34)N2)s1,–,"inconclusive: 15.8 µM [inhibitor, partial curve]"
O=C(C1=C(O)C(=O)N(CCCN2CCOCC2)C1c1ccncc1)c1cc2ccccc2o1 (configuration not stated),inactive: -16.7%,–
CS(=O)(=O)N1CCN(c2ccccc2NC(=O)c2ccc3ccccc3c2)CC1,–,"inconclusive: 39.8 µM [inhibitor, single point]"
CCCCC(=O)NC(=S)Nc1c(C)cc(Br)cc1C,inactive: -1.6%,–
COc1ccc(-c2cn(-c3cccc(C)c3)c(=O)[nH]2)cc1OC,–,"inconclusive: 22.4 µM [inhibitor, partial curve]"
COc1ccc(-n2c(CCc3ccccc3)nnc2SCC(=O)NCc2ccccc2)cc1,inactive: 3.25%,–
N#Cc1cc([N+](=O)[O-])ccc1NC(=O)COC(=O)CCC1CCCCC1,inactive: 12.6%,–
Cc1cc(=O)oc2cc(OC(C)C(=O)Nc3nccs3)ccc12 (configuration not stated),–,"inconclusive: 31.6 µM [inhibitor, partial curve]"
O=C(NCCCCO)c1ccc2c3c(cccc13)CC2,–,"inconclusive: 28.2 µM [inhibitor, partial curve]"
N=c1ccn(Cc2cccc(Cl)c2)cc1,inactive: 0.985%,–
CC[n+]1c(C)n(-c2ccccc2)c2ccc(NC(C)=O)cc21,–,"inconclusive: 25.1 µM [inhibitor, single point]"
CCOc1ccc2[nH]c(C)c(CN3CCCCC3)c(=O)c2c1,–,"inconclusive: 20 µM [inhibitor, partial curve]"
CSc1nc2ccc(NC(=O)c3ccc(F)c(F)c3)cc2s1,–,"inconclusive: 35.5 µM [inhibitor, single point]"
N#CC1=C(S)N(c2ccccc2)C(c2ccc(-c3cccc(Cl)c3)o2)NC1=O (configuration not stated),inactive: -21.7%,–
CCOc1ccc2[nH]c(=O)c(CN(CCO)C(=O)c3ccccc3F)cc2c1,–,"inconclusive: 25.1 µM [inhibitor, partial curve]"
COC(=O)c1ccc(OC(=O)c2cccs2)cc1,inactive: 0.13%,–
Cc1cccc(CNc2cc(-c3cccnc3)ncn2)c1,–,"inconclusive: 28.2 µM [inhibitor, partial curve]"
O=C(CN1C(=O)c2cccc3cccc(c23)C1=O)N1CCCCC1,–,"inconclusive: 31.6 µM [inhibitor, partial curve]"
O=c1c2[nH]c3ccccc3c2ncn1Cc1ccco1,–,"inconclusive: 39.8 µM [inhibitor, single point]"
CCn1c(-c2ccccc2)c(C(=O)CC#N)c2ccccc21,–,"inconclusive: 20 µM [inhibitor, single point]"
Nc1c(S(=O)(=O)c2cccc(Cl)c2)c2nc3ccccc3nc2n1/N=C/c1ccc(O)c(O)c1,–,"inconclusive: 25.1 µM [inhibitor, single point]"
CCn1c(=O)cc(OCC(=O)N2CCCCCC2)c2ccccc21,inactive: -3.72%,–
Cc1cc(C(F)(F)F)nn1CC(=O)NNC(=S)Nc1ccc(Cl)cc1,inactive: 0.249%,–
